From publication PMC10538751 come the findings set out here.

The chains behind the UniProt entries cited, without tags or fusion partners. Where a name states a change or a piece, a line headed by the entry shows the natural chain unless it says otherwise.
UniProt F4IHJ0: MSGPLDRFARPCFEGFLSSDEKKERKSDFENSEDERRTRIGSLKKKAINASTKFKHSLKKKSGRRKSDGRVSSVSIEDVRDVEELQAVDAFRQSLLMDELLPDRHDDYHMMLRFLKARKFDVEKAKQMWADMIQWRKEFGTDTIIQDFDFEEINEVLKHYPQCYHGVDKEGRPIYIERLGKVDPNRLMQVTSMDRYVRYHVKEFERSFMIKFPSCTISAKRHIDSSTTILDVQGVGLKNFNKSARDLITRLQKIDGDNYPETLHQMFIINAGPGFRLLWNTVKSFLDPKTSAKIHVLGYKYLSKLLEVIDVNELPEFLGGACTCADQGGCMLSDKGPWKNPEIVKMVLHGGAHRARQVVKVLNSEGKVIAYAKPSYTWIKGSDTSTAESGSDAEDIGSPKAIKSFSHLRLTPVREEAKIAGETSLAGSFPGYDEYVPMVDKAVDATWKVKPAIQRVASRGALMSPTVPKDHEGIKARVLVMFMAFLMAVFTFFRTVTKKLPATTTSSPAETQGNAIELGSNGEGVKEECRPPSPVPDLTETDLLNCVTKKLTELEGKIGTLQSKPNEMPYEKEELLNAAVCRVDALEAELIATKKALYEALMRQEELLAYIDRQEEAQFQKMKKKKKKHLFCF
UniProt Q9LU77: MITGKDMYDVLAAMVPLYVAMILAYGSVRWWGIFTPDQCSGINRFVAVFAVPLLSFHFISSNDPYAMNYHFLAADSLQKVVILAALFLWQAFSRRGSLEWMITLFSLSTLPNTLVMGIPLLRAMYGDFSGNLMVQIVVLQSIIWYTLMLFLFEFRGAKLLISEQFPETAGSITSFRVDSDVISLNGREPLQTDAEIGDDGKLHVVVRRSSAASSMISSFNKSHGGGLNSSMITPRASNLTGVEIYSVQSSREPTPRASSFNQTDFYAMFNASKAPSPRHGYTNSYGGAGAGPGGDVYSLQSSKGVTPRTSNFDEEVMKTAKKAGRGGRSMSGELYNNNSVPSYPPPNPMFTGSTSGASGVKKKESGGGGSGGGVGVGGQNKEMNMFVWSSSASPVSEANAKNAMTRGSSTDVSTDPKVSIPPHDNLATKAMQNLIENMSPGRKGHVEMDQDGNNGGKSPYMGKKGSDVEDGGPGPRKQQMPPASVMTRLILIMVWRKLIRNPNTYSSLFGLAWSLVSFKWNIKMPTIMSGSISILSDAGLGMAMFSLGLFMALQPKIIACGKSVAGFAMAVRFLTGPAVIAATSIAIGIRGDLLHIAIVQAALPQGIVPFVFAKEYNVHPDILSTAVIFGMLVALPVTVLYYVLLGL

No constants are given. Whether binding was seen depends on the method and setting. For part of these data: Binding seen in cells or lysates may run through a third protein. Some entries that bind do so weakly or less than the wild type. For part of these data: Tags and fused reporters may be left off the sequences shown.

Assay [1] concerns the target GST-SFH8 (full length, recombinant) (Arabidopsis thaliana) (UniProt F4IHJ0). The assay is described as follows: native gel or EMSA; native polyacrylamide gel electrophoresis of recombinant GST-SFH8 and GST-SFH8^ΔIDR over time, detected by α-GST; both purified.
Assay [2] has as its target T1, PIP2a-GFP (PLASMA MEMBRANE … PROTEIN 2a) (Arabidopsis thaliana) (UniProt P43286).
T1 sequence: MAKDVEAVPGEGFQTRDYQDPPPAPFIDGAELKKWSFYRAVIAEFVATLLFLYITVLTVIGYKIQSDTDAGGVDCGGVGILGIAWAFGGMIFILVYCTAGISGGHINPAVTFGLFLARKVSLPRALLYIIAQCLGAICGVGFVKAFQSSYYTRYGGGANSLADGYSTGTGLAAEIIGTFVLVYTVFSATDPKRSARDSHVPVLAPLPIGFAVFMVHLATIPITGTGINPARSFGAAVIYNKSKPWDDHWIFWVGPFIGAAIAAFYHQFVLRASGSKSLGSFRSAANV
Briefly: proximity ligation; whole-mount PLA (Duolink) on fixed, permeabilised roots of 4- to 5-day-old seedlings; antibody pairs α-GFP/α-SFH8, α-GFP/α-FLAG, α-PIN2/α-FLAG, α-mNeon/α-SFH8.

Assay [3] concerns the target PIN2-GFP (PIN2pro:PIN2-EGFP) (Arabidopsis thaliana) (UniProt Q9LU77). The description is as above.
The target is the same in assay [4]. The assay is described as follows: FRET or BRET; sensitized emission FRET in living roots between PIN2-GFP and SFH8-mScarlet (RPS5apro), epidermis and cortex.

In the case of “GST-SFH8 (full length, recombinant) (from UniProt F4IHJ0 1-633)”, the binding entry in assay [1] is “binds weakly”. “SFH8, full length (endogenous, uncleaved form in the root) (from UniProt F4IHJ0 1-633)”: in assay [2], the binding result was “no binding”. On to “SFH8-HF, C-terminally HF-tagged SFH8 as SFH8^ΔIDR (region 3 onwards) (from UniProt F4IHJ0 85-633) (domain or fragment)”, for which the binding entry in assay [3] is listed as “binds”.

Turning to “SFH8-mScarlet (RPS5apro), C-terminally tagged, in regions 3 and 4 (from UniProt F4IHJ0 85-633) (domain or fragment)”, the binding entry in assay [4] is listed as “binds”.

Take “SFH8^ΔIDR (endogenous SFH8 cleaved by ESP, region 3 onwards) (from UniProt F4IHJ0 85-633) (domain or fragment)”: the values for the binding result in assay [2] and in assay [3] were “no binding” and “binds”, respectively.
